{"source": "patent US20250295610A1", "about": "“NEUROPROTECTIVE AGENTS FOR USE IN THE TREATMENT OF OPTIC NEUROPATHIES” (The Board of Trustees of the Leland Stanford Junior …, priority 2021, published 2025)", "test_system": "RGC somata and axons, mouse SOHU glaucoma model", "conditions": "3wpi", "data": [{"smiles": "CNCCCC12CCC(c3ccccc31)c1ccccc12", "note": "[maprotiline]", "values": [{"measurement": "axon protection by TEM analysis of ON cross sections and CTB tracing in wholemount ONs", "setting": "SOHU mouse", "value": "confirmed the axon protection effect"}, {"measurement": "RGC soma survival", "setting": "SOHU mouse, retina wholemounts, vs DMSO", "value": "significantly greater"}, {"measurement": "GCC thickness by OCT", "setting": "SOHU mouse, retrobulbar 50 μl of 2 mM day 0 and 10 + i.p. 15 mg/kg daily, vs DMSO", "value": "significantly increased"}, {"measurement": "axon survival", "setting": "SOHU mouse, semi-thin ON sections, vs DMSO", "value": "significantly greater"}, {"measurement": "normal IOP", "setting": "naïve mice", "value": "did not affect"}]}]}
